Measured values as given in PubChem BioAssay AID463173 (ICCB-Longwood Screening Facility, Harvard Medical School, 2010).
Screen size: about 52,000 compounds; about 1,700 (3.3%) were called active. No stated cut-off is given here; in the data, active means survival mostly below about 52% (no sharp cut-off); inactive means mostly above about 56%. The list shows a part of the results.

tested on: Wild type; assay: growth inhibition of S. aureus wild type versus tarO mutant, primary screen, teichoic acid synthesis inhibitors, RN4220, OD600 (AID 463173); conditions: S. aureus RN4220 wild type/DeltatarO growth, OD600, 18 h, stronger effect = lower value, screened at 18.75 µg/mL (by protocol)

SMILES | survival
COc1cc2c(cc1OC)CN(C(=O)CCC(=O)O)CC2 | inactive: 87%
Cc1ccc(-c2cc(C(=O)Oc3ccccc3)c3cc(C)ccc3n2)cc1 | inactive: 65%
CC(c1ccccc1)n1cc(C(=O)NCC2COc3ccccc3O2)nn1 (stereo unspecified) | inactive: 117%
CCCn1c(SCC(=O)N(C(C)C)C(C)C)nnc1-c1cccnc1 | inactive: 110%
CCC1CCCCN1CCCNC(=O)CN1C(=O)CSc2ccc(S(=O)(=O)N3CCOCC3)cc21 (stereo unspecified) | inactive: 67%
Cc1cc(NC(=O)C2CCN(S(=O)(=O)c3ccc4[nH]c(=O)oc4c3)CC2)ccc1Br | inactive: 111%
COc1ccc2nc(NC(=O)c3nc(S(=O)(=O)Cc4cccc(C)c4)ncc3Cl)sc2c1 | inactive: 86%
CCOC(=O)Cn1nc(C)c(NC(=O)COc2ccc(Cl)cc2C)c1C | inactive: 69%
CCOc1ccccc1NC(=O)Cn1ccn(Cc2ccc(C)cc2)c(=O)c1=O | inactive: 85%
Cc1ccc(CN(C(=O)COc2c(C)cccc2C)C2CCS(=O)(=O)C2)o1 (stereo unspecified) | inactive: 115%
COC(=O)c1nc2n(n1)C(c1cc(OC)ccc1OC)C(C(=O)Nc1ccc(C)cc1C)=C(C)N2 (stereo unspecified) | inactive: 83%
Cc1ccc(NC(=O)C(Cc2c[nH]c3ccccc23)NC(=O)OCC(C)C)cc1 (stereo unspecified) | inactive: 54%
COc1ccc(/C=C\C(=O)NC2CC(=O)N(c3ccccc3)C2)cc1OC (stereo unspecified) | inactive: 134%
COc1cc(NC(=O)c2nc(-c3ccncc3)no2)cc(OC)c1OC | inactive: 112%
Cc1ccc(Cl)cc1N1CCN(CCNC(=O)Nc2ccccc2Cl)CC1 | inactive: 98%
CC(C)(C)C(=O)NCCc1csc2nc(-c3ccc(F)cc3)nn12 | inactive: 73%
CCOC(=O)Cc1cc(=O)[nH]c(/N=C(\N)Nc2ccc3ccccc3c2)n1 | inactive: 90%
COc1ccc2oc(-c3ccc(C)c(NC(=O)COc4cc(C)cc(C)c4)c3)nc2c1 | inactive: 72%
CCc1ccc(-n2c(=O)c3c4c(sc3n(CC(=O)c3ccc(Cl)cc3)c2=O)CCC4)cc1 | inactive: 139%

SMILES | survival
CSc1cccc(NC(=O)C2CCN(C(=O)c3cnn(-c4ccccc4)c3-n3cccc3)CC2)c1 | inactive: 94%
O=C(CCS(=O)(=O)c1cccc2nsnc12)Nc1ccc(F)cc1 | inactive: 64%
Cc1ccc(Cl)cc1NC(=O)C(=O)NCC(c1cccnc1)N1CCc2ccccc21 (stereo unspecified) | inactive: 62%
Cc1ccc2oc3c(c(=O)c2c1)C1(C(=O)N(C)c2ccccc21)N(CCCO)C3=O (stereo unspecified) | inactive: 84%
COc1ccccc1NC(=O)c1sc2nc3c(cc2c1N)CCCCCC3 | inactive: 81%
O=C(c1ccccc1)N1c2ncnn2C2(CCCCC2)[C@@H]2CCCC[C@@H]21 | inactive: 79%
Cc1ccc(-n2nnc(C(=O)Nc3cc(F)ccc3F)c2C)cc1F | inactive: 111%
Cc1nn(-c2ccc(N3CCOCC3)nn2)c(C)c1CCC(=O)NCc1ccc(F)cc1 | inactive: 153%
COC(=O)CSc1nc(N)c(C#N)c(-c2ccccc2)c1C#N | inactive: 112%
Cc1ccc2c(c1)C(c1ccc(F)cc1)N(C(=O)c1ccc(OC(C)C)cc1)CC(=O)N2 (stereo unspecified) | inactive: 105%
Cc1ccccc1C(=O)Nc1cc(-c2ccc(Cl)cc2)nn1-c1ccccc1 | inactive: 70%
COc1cc2[nH]c(=O)n(CCCC(=O)N3CCN(c4cccc(C(F)(F)F)c4)CC3)c(=O)c2cc1OC | inactive: 70%
CCS(=O)(=O)N1CCN(C2CCCCCCC2)CC1 | inactive: 113%
CCOc1ccc(NC(=O)CSc2nc3c(oc4ccccc43)c(=O)n2CCOC)cc1 | inactive: 87%
Cc1ccn2c(=O)cc(COc3ccc(NC(=O)c4ccccc4F)cc3)nc2c1 | inactive: 73%
Cn1ncc2nc(SCC(=O)Nc3ccc(Br)cc3F)n(Cc3ccccc3)c(=O)c21 | inactive: 48%
CC(C(=O)NCC1CCCO1)N(C(=O)c1snc(C(N)=O)c1N)c1cccc(F)c1 (stereo unspecified) | inactive: 101%
Cc1ccc(NC(=O)C2CCN(c3cc(C)nc4c(-c5ccc(Cl)cc5)c(C)nn34)CC2)c(C)c1 | inactive: 97%
COc1ccccc1N1CCN(C(=O)CN2C(=O)COc3ccc(S(=O)(=O)N4CCC(C)CC4)cc32)CC1 | inactive: 98%

SMILES | survival
COc1ccc(C(=O)CSc2c(C(C)C)cnc3c2c(=O)n(C)c(=O)n3C)cc1 | inactive: 74%
CCOC(=O)c1cnc2c(CC)cccc2c1NCCO | inactive: 116%
Cc1cccc(N2CCN(c3cccc(C)c3)C2c2cccnc2)c1 | inactive: 111%
Cc1ccc2nc(N(Cc3cccnc3)C(=O)CCS(=O)(=O)c3ccccc3)sc2c1 | inactive: 73%
CC(=O)c1ccc(NC(=O)CSc2nc(-c3cccc(F)c3)nc3c2c(=O)n(C)c(=O)n3C)cc1 | inactive: 83%
CCOc1ccc(CCNC(=O)CN2N=C(c3ccccc3)CCC2=O)cc1OCC | inactive: 85%
CCCCN(CC)CCCNC(=O)c1cc2c(=O)[nH]c3ccccc3c2s1 | inactive: 135%
CN1C(C(=O)Nc2ccc(F)cc2F)=CC(c2ccc3c(c2)OCO3)=NS1(=O)=O | inactive: 74%
Cc1cc(C)cc(NC(=O)CN2C(=O)c3ccccc3Sc3ncccc32)c1 | inactive: 92%
COc1ccc(CNC(=O)c2ccc3c(c2)nc2n3CCOC2)c(OC)c1 | inactive: 81%
Cc1ccc(CN(Cc2ccco2)C(=O)COc2ccc(C(C)C)cc2)cc1 | inactive: 111%
O=C1c2ccc(-c3ccc4c(c3)C(=O)N(CCO)C4=O)cc2C(=O)N1CCO | inactive: 113%
Cc1ccc(-c2cc(C(F)(F)F)c(C#N)c(SCC(=O)Nc3ccccc3)n2)cc1 | inactive: 72%
COc1ccc(OC)c(CCNC(=O)c2csc3c2CCCCC3)c1 | inactive: 34%
CCOC(=O)C(C)NC(=O)c1c(C)oc2ncn(CC(C)C)c(=O)c12 (stereo unspecified) | inactive: 72%
CCOC(=O)C1CCN(C(=O)c2ccc3c(=O)n4nc(Nc5cc(C)ccc5C)sc4nc3c2)CC1 | inactive: 72%
CCOc1cccc(C2c3c(-c4cc(C)ccc4O)n[nH]c3C(=O)N2Cc2ccco2)c1 (stereo unspecified) | inactive: 27%
Cc1ccc(CNC(=O)c2cc3c(=O)n(Cc4cccnc4)ccc3nc2C)cc1 | inactive: 74%
